# According to the supplement of paper PMC7826260:
# Some of the results follow. Viral Rep nickase domains cut single-stranded DNA in vitro at 3 µM enzyme and 37 °C for 1 h; the strands have 90 letters, of which the middle is given. A value is the log2 ratio of uncut reads to the pool without enzyme; the lower, the more was cut; hits are not called. Shares of all reads are compared, so uncut sequences can rise above 0 when many others are cut.
# Test system: T1, Rep nickase domain of faba bean necrotic yellows virus
# T1 sequence (Rep 1-98, printed without the tag): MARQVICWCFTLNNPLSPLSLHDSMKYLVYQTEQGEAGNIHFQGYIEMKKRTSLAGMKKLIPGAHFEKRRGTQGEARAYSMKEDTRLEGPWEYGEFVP
# Experiment: uncleaved DNA left, log2 of reads against the no-enzyme library (log2 ratio); higher = less cleavage (more negative = more Rep cleavage of the k-mer); sequences stand for … in CTCGTCCG…ACCGGAGA
# Description: (§1)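 A pool of 90-nt single-stranded DNAs with seven random bases just before the constant AC of the nick site (name = the seven bases) was cut by 3 µM recombinant His6-SUMO-tagged Rep nickase domain (300 nM DNA, 50 mM HEPES pH 8.0, 50 mM NaCl, 1 mM MnCl2, 1 h, 37 °C, three replicates). Uncut DNA was amplified and sequenced.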
row,Sequence,uncleaved DNA left (log2)
1,CGGTTTT,-0.0717
2,CAGCTGT,0.175
3,TGAGGAG,0.00283
4,TGTCTAG,-0.00292
5,AGAGGTA,0.0228
6,ACTTCGG,0.133
7,CGTGCCG,-0.0305
8,GGGCCCG,-0.0208
9,TGCCCTA,-0.0353
10,ACATGTG,0.153
11,ACGCAGC,-0.0314
12,CCCTGTG,0.048
13,GCTAAAA,0.0113
14,CTACCAG,-0.138
15,AAAGCGA,-0.0859
16,CCGAGAT,0.0843
17,AGGCCCG,0.0915
18,TCTAAAG,0.0614
19,GAGCCAG,0.0699
20,TGGGATC,0.00758

row,Sequence,uncleaved DNA left (log2)
1,GTTTTCG,0.0824
2,TTGTCGC,-0.0506
3,GGATTTC,0.00594
4,CATAACG,0.0575
5,GTCAAGC,-0.0771
6,AGCCTAG,-0.0303
7,GGGTGCT,-0.0468
8,CAAAGAC,-0.00115
9,GTGATTG,-0.0736
10,CAGCGGG,-0.0135
11,GGATGAC,-0.00282
12,TGTCATG,-0.0683
13,GCTGCCC,-0.0588
14,CGTTCGC,0.032
15,ATTCTAC,-0.022
16,TTACCGT,-0.0773
17,CACAAAA,0.0386
18,TCCTAAT,-0.106
19,TGTCTCT,0.0353
20,CAGCACA,-0.0896

# Test system: T2, Rep nickase domain of maize striate mosaic virus
# T2 sequence (Rep 1-117, printed without the tag): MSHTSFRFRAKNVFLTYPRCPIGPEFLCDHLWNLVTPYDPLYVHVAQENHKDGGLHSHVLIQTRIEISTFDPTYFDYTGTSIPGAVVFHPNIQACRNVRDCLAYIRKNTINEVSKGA
# Experiment: as above
# Description: as §1
row,Sequence,uncleaved DNA left (log2)
1,CGGTTTT,0.826
2,CAGCTGT,1.65
3,TGAGGAG,0.591
4,TGTCTAG,-1.22
5,AGAGGTA,1.15
6,ACTTCGG,-0.496
7,CGTGCCG,-0.822
8,GGGCCCG,1.47
9,TGCCCTA,0.149
10,ACATGTG,0.042
11,ACGCAGC,-1.09
12,CCCTGTG,-1.11
13,GCTAAAA,0.203
14,CTACCAG,-1.04
15,AAAGCGA,-0.95
16,CCGAGAT,1.61
17,AGGCCCG,0.557
18,TCTAAAG,-1.28
19,GAGCCAG,-0.00312
20,TGGGATC,2.07

row,Sequence,uncleaved DNA left (log2)
1,GTTTTCG,-0.582
2,TTGTCGC,-1.04
3,GGATTTC,1.77
4,CATAACG,-1.05
5,GTCAAGC,0.782
6,AGCCTAG,-0.505
7,GGGTGCT,2.08
8,CAAAGAC,-0.541
9,GTGATTG,1.42
10,CAGCGGG,-0.331
11,GGATGAC,2.14
12,TGTCATG,-0.881
13,GCTGCCC,0.522
14,CGTTCGC,-0.739
15,ATTCTAC,-0.626
16,TTACCGT,-1.06
17,CACAAAA,-0.656
18,TCCTAAT,-0.271
19,TGTCTCT,0.461
20,CAGCACA,-0.312

# Test system: T3, Rep nickase domain of porcine circovirus 2
# T3 sequence (Rep 2-116, printed without the tag): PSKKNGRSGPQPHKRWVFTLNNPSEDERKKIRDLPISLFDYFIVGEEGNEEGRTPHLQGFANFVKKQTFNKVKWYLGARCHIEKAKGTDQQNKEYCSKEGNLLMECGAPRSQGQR
# Experiment: as above
# Description: as §1
row,Sequence,uncleaved DNA left (log2)
1,CGGTTTT,-2.59
2,CAGCTGT,-0.0357
3,TGAGGAG,0.226
4,TGTCTAG,0.00275
5,AGAGGTA,0.0298
6,ACTTCGG,0.168
7,CGTGCCG,0.0775
8,GGGCCCG,0.0932
9,TGCCCTA,-0.205
10,ACATGTG,0.307
11,ACGCAGC,0.127
12,CCCTGTG,0.131
13,GCTAAAA,0.19
14,CTACCAG,-0.359
15,AAAGCGA,0.159
16,CCGAGAT,0.173
17,AGGCCCG,0.0697
18,TCTAAAG,0.243
19,GAGCCAG,0.108
20,TGGGATC,0.119

row,Sequence,uncleaved DNA left (log2)
1,GTTTTCG,0.118
2,TTGTCGC,-0.00992
3,GGATTTC,0.109
4,CATAACG,0.204
5,GTCAAGC,0.0257
6,AGCCTAG,0.197
7,GGGTGCT,-1.52
8,CAAAGAC,0.134
9,GTGATTG,0.123
10,CAGCGGG,0.15
11,GGATGAC,0.114
12,TGTCATG,-0.0643
13,GCTGCCC,0.0643
14,CGTTCGC,0.187
15,ATTCTAC,-0.383
16,TTACCGT,-0.536
17,CACAAAA,0.0385
18,TCCTAAT,-3.44
19,TGTCTCT,-0.247
20,CAGCACA,-0.605

# Test system: T4, Rep nickase domain of tomato yellow leaf curl virus
# T4 sequence (Rep 1-136, printed without the tag): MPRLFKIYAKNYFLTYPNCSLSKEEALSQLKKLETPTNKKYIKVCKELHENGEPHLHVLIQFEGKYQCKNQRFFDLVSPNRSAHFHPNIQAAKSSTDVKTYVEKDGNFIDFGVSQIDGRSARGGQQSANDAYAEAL
# Experiment: as above
# Description: as §1
row,Sequence,uncleaved DNA left (log2)
1,CGGTTTT,0.0435
2,CAGCTGT,-0.101
3,TGAGGAG,-0.076
4,TGTCTAG,0.0469
5,AGAGGTA,0.0592
6,ACTTCGG,-0.0102
7,CGTGCCG,-0.0902
8,GGGCCCG,-0.0894
9,TGCCCTA,0.0632
10,ACATGTG,0.179
11,ACGCAGC,-0.121
12,CCCTGTG,-0.0798
13,GCTAAAA,0.00857
14,CTACCAG,-0.0629
15,AAAGCGA,-0.0471
16,CCGAGAT,-0.0783
17,AGGCCCG,-0.0505
18,TCTAAAG,0.0759
19,GAGCCAG,0.0401
20,TGGGATC,-0.0508

row,Sequence,uncleaved DNA left (log2)
1,GTTTTCG,-0.0023
2,TTGTCGC,-0.0132
3,GGATTTC,0.0609
4,CATAACG,0.0327
5,GTCAAGC,0.0487
6,AGCCTAG,0.037
7,GGGTGCT,0.0131
8,CAAAGAC,-0.0663
9,GTGATTG,0.0213
10,CAGCGGG,-0.035
11,GGATGAC,0.0536
12,TGTCATG,-0.146
13,GCTGCCC,-0.0572
14,CGTTCGC,0.06
15,ATTCTAC,-0.158
16,TTACCGT,-0.145
17,CACAAAA,-0.0602
18,TCCTAAT,0.0654
19,TGTCTCT,-0.00956
20,CAGCACA,0.0952

# Test system: T5, Rep nickase domain of wheat dwarf virus
# T5 sequence (Rep 1-137, printed without the tag): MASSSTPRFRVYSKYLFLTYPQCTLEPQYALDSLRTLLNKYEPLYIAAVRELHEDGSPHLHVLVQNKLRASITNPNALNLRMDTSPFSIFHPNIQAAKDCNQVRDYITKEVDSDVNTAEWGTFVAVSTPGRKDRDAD
# Experiment: as above
# Description: as §1
row,Sequence,uncleaved DNA left (log2)
1,CGGTTTT,0.0773
2,CAGCTGT,-0.0406
3,TGAGGAG,0.0705
4,TGTCTAG,-0.0238
5,AGAGGTA,0.0809
6,ACTTCGG,-0.0842
7,CGTGCCG,-0.192
8,GGGCCCG,0.067
9,TGCCCTA,0.103
10,ACATGTG,-0.0326
11,ACGCAGC,-0.16
12,CCCTGTG,-0.079
13,GCTAAAA,0.117
14,CTACCAG,-0.179
15,AAAGCGA,-0.109
16,CCGAGAT,-0.0313
17,AGGCCCG,0.128
18,TCTAAAG,-0.117
19,GAGCCAG,0.0939
20,TGGGATC,0.0731

row,Sequence,uncleaved DNA left (log2)
1,GTTTTCG,-0.00666
2,TTGTCGC,-0.291
3,GGATTTC,0.102
4,CATAACG,-0.0165
5,GTCAAGC,0.083
6,AGCCTAG,0.0011
7,GGGTGCT,0.0731
8,CAAAGAC,-0.119
9,GTGATTG,0.113
10,CAGCGGG,-0.0473
11,GGATGAC,0.144
12,TGTCATG,0.0374
13,GCTGCCC,-0.0461
14,CGTTCGC,-0.0354
15,ATTCTAC,-0.108
16,TTACCGT,-0.139
17,CACAAAA,-0.00645
18,TCCTAAT,0.0606
19,TGTCTCT,-0.141
20,CAGCACA,0.0143
